# Source: the supplement of paper PMC8728848
# The list shows a part of the results.
# B1: diCBM40 CPF071 (Clostridium perfringens) (protein)
# chain: MAHHHHHHVGTGSNDDDDKSPDPMLSSLGEYKDINLESSNASNITYDLEKYKNLDEGTIVVRFNSKDSKIQSLLGISNSKTKNGYFNFYVTNSRVGFELRNQKNEGNTQNGTENLVHMYKDVALNDGDNTVALKIEKNKGYKLFLNGKMIKEVKDTNTKFLNNIENLDSAFIGKTNRYGQSNEYNFKGNIGFMNIYNEPLGDDYLLSKTGETKALNGSELGSGSGLSSLGEYKDINLESSNASNITYDLEKYKNLDEGTIVVRFNSKDSKIQSLLGISNSKTKNGYFNFYVTNSRVGFELRNQKNEGNTQNGTENLVHMYKDVALNDGDNTVALKIEKNKGYKLFLNGKMIKEVKDTNTKFLNNIENLDSAFIGKTNRYGQSNEYNFKGNIGFMNIYNEPLGDDYLLSKTGETK
# Legend:
# Experiment in all cases: glycan array binding signal (z-score within array); higher = stronger binding
# Details in all cases: glycan notation: IUPAC condensed, linker removed
# Fuc(a1-2)Gal = molecular target: Fuc(a1-2)Gal
# Procedure, shortened: (§1)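 Glycan array binding is given as a within-array Z-score, which can be read as non-binding when negative. The arrays, 3228 of them, came from the Consortium for Functional Glycomics database and were retained only where the protein sequence was available. Z-scores were averaged across arrays of the same protein sequence at different concentrations or buffers and across linkers.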
# Fuc(a1-2)Gal(b1-3)GalNAc = molecular target: Fuc(a1-2)Gal(b1-3)GalNAc
# Procedure, shortened: as §1
# [1] = molecular target: Fuc(a1-2)Gal(b1-3)GalNAc(a1-3)[Fuc(a1-2)]Gal(b1-4)Glc
# Procedure, shortened: as §1
# [2] = molecular target: Fuc(a1-2)Gal(b1-3)GalNAc(a1-3)[Fuc(a1-2)]Gal(b1-4)GlcNAc
# Procedure, shortened: as §1
# [3] = molecular target: Fuc(a1-2)Gal(b1-3)GalNAc(b1-3)Gal
# Procedure, shortened: as §1
# [4] = molecular target: Fuc(a1-2)Gal(b1-3)GalNAc(b1-3)Gal(a1-4)Gal(b1-4)Glc
# Procedure, shortened: as §1
# [5] = molecular target: Fuc(a1-2)Gal(b1-3)GalNAc(b1-4)[Neu5Ac(a2-3)]Gal(b1-4)Glc
# Procedure, shortened: as §1
# Fuc(a1-2)Gal(b1-3)GlcNAc = molecular target: Fuc(a1-2)Gal(b1-3)GlcNAc
# Procedure, shortened: as §1
# [6] = molecular target: Fuc(a1-2)Gal(b1-3)GlcNAc(b1-2)Man(a1-3)[Fuc(a1-2)Gal(b1-3)GlcNAc(b1-2)Man(a1-6)]Man(b1-4)GlcNAc(b1-4)GlcNAc
# Procedure, shortened: as §1
# [7] = molecular target: Fuc(a1-2)Gal(b1-3)GlcNAc(b1-2)Man(a1-3)[Fuc(a1-2)Gal(b1-3)GlcNAc(b1-2)Man(a1-6)]Man(b1-4)GlcNAc(b1-4)[Fuc(a1-6)]GlcNAc
# Procedure, shortened: as §1
# [8] = molecular target: Fuc(a1-2)Gal(b1-3)GlcNAc(b1-3)Gal(b1-4)Glc
# Procedure, shortened: as §1
# [9] = molecular target: Fuc(a1-2)Gal(b1-3)GlcNAc(b1-3)GalNAc
# Procedure, shortened: as §1
# [10] = molecular target: Fuc(a1-2)Gal(b1-3)GlcNAc(b1-3)[Fuc(a1-2)Gal(b1-3)GlcNAc(b1-6)]GalNAc
# Procedure, shortened: as §1
# [11] = molecular target: Fuc(a1-2)Gal(b1-3)GlcNAc(b1-3)[Gal(b1-4)GlcNAc(b1-6)]Gal(b1-4)Glc
# Procedure, shortened: as §1
# [12] = molecular target: Fuc(a1-2)Gal(b1-3)GlcNAc(b1-3)[Neu5Ac(a2-6)Gal(b1-4)GlcNAc(b1-6)]Gal(b1-4)Glc
# Procedure, shortened: as §1
# [13] = molecular target: Fuc(a1-2)Gal(b1-3)GlcNAc6S
# Procedure, shortened: as §1
# [14] = molecular target: Fuc(a1-2)Gal(b1-3)[Fuc(a1-4)]GlcNAc
# Procedure, shortened: as §1
# [15] = molecular target: Fuc(a1-2)Gal(b1-3)[Fuc(a1-4)]GlcNAc(b1-2)Man(a1-3)[Fuc(a1-2)Gal(b1-3)[Fuc(a1-4)]GlcNAc(b1-2)Man(a1-3)]Man(b1-4)GlcNAc(b1-4)GlcNAc
# Procedure, shortened: as §1
# [16] = molecular target: Fuc(a1-2)Gal(b1-3)[Fuc(a1-4)]GlcNAc(b1-2)Man(a1-3)[Fuc(a1-2)Gal(b1-3)[Fuc(a1-4)]GlcNAc(b1-2)Man(a1-6)]Man(b1-4)GlcNAc(b1-4)[Fuc(a1-6)]GlcNAc(b1-4)[Fuc(a1-6)]GlcNAc
# Procedure, shortened: as §1
# [17] = molecular target: Fuc(a1-2)Gal(b1-3)[Fuc(a1-4)]GlcNAc(b1-3)[Fuc(a1-3)[Gal(b1-4)]GlcNAc(b1-6)]Gal(b1-4)Glc
# Procedure, shortened: as §1
# [18] = molecular target: Fuc(a1-2)Gal(b1-3)[Fuc(a1-4)]GlcNAc(b1-3)[Gal(b1-4)GlcNAc(b1-6)]Gal(b1-4)Glc
# Procedure, shortened: as §1
# Fuc(a1-2)Gal(b1-4)Glc = molecular target: Fuc(a1-2)Gal(b1-4)Glc
# Procedure, shortened: as §1
# Fuc(a1-2)Gal(b1-4)Glc6S = molecular target: Fuc(a1-2)Gal(b1-4)Glc6S
# Procedure, shortened: as §1
# Fuc(a1-2)Gal(b1-4)GlcNAc = molecular target: Fuc(a1-2)Gal(b1-4)GlcNAc
# Procedure, shortened: as §1
# [19] = molecular target: Fuc(a1-2)Gal(b1-4)GlcNAc(b1-2)Man
# Procedure, shortened: as §1
# [20] = molecular target: Fuc(a1-2)Gal(b1-4)GlcNAc(b1-2)Man(a1-3)[Fuc(a1-2)Gal(b1-4)GlcNAc(b1-2)Man(a1-6)]Man(b1-4)GlcNAc(b1-4)GlcNAc
# Procedure, shortened: as §1
# [21] = molecular target: Fuc(a1-2)Gal(b1-4)GlcNAc(b1-2)Man(a1-3)[Fuc(a1-2)Gal(b1-4)GlcNAc(b1-2)Man(a1-6)]Man(b1-4)GlcNAc(b1-4)[Fuc(a1-6)]GlcNAc
# Procedure, shortened: as §1
# [22] = molecular target: Fuc(a1-2)Gal(b1-4)GlcNAc(b1-2)[Fuc(a1-2)Gal(b1-4)GlcNAc(b1-4)]Man(a1-3)[Fuc(a1-2)Gal(b1-4)GlcNAc(b1-2)Man(a1-6)]Man(b1-4)GlcNAc(b1-4)GlcNAc
# Procedure, shortened: as §1
# [23] = molecular target: Fuc(a1-2)Gal(b1-4)GlcNAc(b1-3)Gal(b1-4)GlcNAc
# Procedure, shortened: as §1
# [24] = molecular target: Fuc(a1-2)Gal(b1-4)GlcNAc(b1-3)Gal(b1-4)GlcNAc(b1-2)Man(a1-3)[Fuc(a1-2)Gal(b1-4)GlcNAc(b1-3)Gal(b1-4)GlcNAc(b1-2)Man(a1-6)]Man(b1-4)GlcNAc(b1-4)GlcNAc
# Procedure, shortened: as §1
binder,measurement,setting,value
B1,glycan array binding signal (z-score),Fuc(a1-2)Gal,-0.341
same,glycan array binding signal (z-score),Fuc(a1-2)Gal(b1-3)GalNAc,-0.289
same,glycan array binding signal (z-score),[1],-0.306
same,glycan array binding signal (z-score),[2],-0.32
same,glycan array binding signal (z-score),[3],-0.136
same,glycan array binding signal (z-score),[4],-0.304
same,glycan array binding signal (z-score),[5],-0.14
same,glycan array binding signal (z-score),Fuc(a1-2)Gal(b1-3)GlcNAc,-0.159
same,glycan array binding signal (z-score),[6],0.005
same,glycan array binding signal (z-score),[7],-0.303
same,glycan array binding signal (z-score),[8],-0.128
same,glycan array binding signal (z-score),[9],-0.317
same,glycan array binding signal (z-score),[10],-0.285
same,glycan array binding signal (z-score),[11],-0.277
same,glycan array binding signal (z-score),[12],-0.275
same,glycan array binding signal (z-score),[13],-0.281
same,glycan array binding signal (z-score),[14],-0.247
same,glycan array binding signal (z-score),[15],-0.301
same,glycan array binding signal (z-score),[16],-0.324
same,glycan array binding signal (z-score),[17],-0.327
same,glycan array binding signal (z-score),[18],-0.297
same,glycan array binding signal (z-score),Fuc(a1-2)Gal(b1-4)Glc,-0.349
same,glycan array binding signal (z-score),Fuc(a1-2)Gal(b1-4)Glc6S,-0.338
same,glycan array binding signal (z-score),Fuc(a1-2)Gal(b1-4)GlcNAc,-0.304
same,glycan array binding signal (z-score),[19],-0.326
same,glycan array binding signal (z-score),[20],-0.021
same,glycan array binding signal (z-score),[21],-0.291
same,glycan array binding signal (z-score),[22],-0.32
same,glycan array binding signal (z-score),[23],-0.34
same,glycan array binding signal (z-score),[24],-0.312
